Source: PubChem BioAssay AID902 (National Center for Advancing Translational Sciences (NCATS), 2007)
“And” between values parts separate entries of the source, which are not always exact repeats. Equal values may be shown once. Among all 130,000 compounds or so, about 1,900 (1.5%) were called active. Inconclusive means that the source gave no clear call. Such entries were picked first, then a sample of the others. Calls follow the shape of the dose curve; as a rule, active = well fitted cell-killing curve with a large enough effect; inconclusive = small, poorly fitted or top-dose-only effect; inactive = no such curve, though single readings can be large or run the other way. A potency beside an inconclusive call is a rough fit, not a confirmed value.

experiment: qHTS Screen for Compounds that Selectively Target Cancer Cells with p53 Mutations: Cytotoxicity of p53ts Cells at the Nonpermissive Temperature; details: H1299-p53A138V viability at 39C, ATP luminescence, 24 h; activity change, negative = cell killing: at 46.1 µM (top of the series); also: nearly all actives have a fitted effect of over 55% in size
% is scaled to controls: 0 for no effect and ±100 for the full control effect; potency is read from the fitted curve at half-maximal effect; tags tell the direction and shape of the fitted curve.

SMILES | Potency | activity change, negative = cell killing
COc1ccc(OC)c(NC(=O)c2sc3nc4c(cc3c2N)CCCCCC4)c1 | active: 12.6 µM | 
Cc1cnc2c(c1SCC(=O)NCc1ccc(F)cc1)c(=O)n(C)c(=O)n2C |  | inactive: -13.4%
CCOc1ccc(-c2cc(C(=O)N3CCN(c4ccc(C)cc4)C(C)C3)c3ccccc3n2)cc1 (stereo not given) | active: 20 µM | 
COc1ccc(N2CCN(S(=O)(=O)CCNC(=O)c3ccc(OC(C)C)cc3)CC2)cc1 | inconclusive: 3.98 µM [cytotoxic, full curve, poor fit] | 
CN(C(=O)CSc1nc2ccc(NC(=O)COc3ccccc3Cl)cc2s1)c1ccccc1 |  | inactive: 13.8%
CCCCn1nc(NC(=O)c2cccc(Cl)c2)c2cc3ccc(C)cc3nc21 |  | inconclusive: -30.6% [cytotoxic]
O=C(NCCc1ccccc1)c1cc2sccc2n1Cc1ccc(F)cc1 |  | inactive: 10.7%
COC(=O)C1CCN(C(c2ccccc2Cl)c2sc3nc(-c4ccco4)nn3c2O)CC1 (stereo not given) |  | inactive: -4.79%
CCCCOc1ccc(C(=O)Nc2onc3c2CCCC3)cc1 | inconclusive: 20 µM [cytotoxic, partial curve, poor fit] | 
Cc1cc(C(=O)COc2cccc(-n3cnnn3)c2)c(C)n1-c1ccccc1 | inconclusive: 25.1 µM [cytotoxic, partial curve] | 
CN(C)CN1C(=O)S/C(=C2/C(=O)N(CN(C)C)c3ccccc32)C1=O |  | inactive: 5.09% [at 9.22 µM]
Cc1cc(C)cc(NC(=O)Nc2cccs2)c1 | inconclusive: 12.6 µM [cytotoxic, partial curve, poor fit] | 
COCCNC(=O)CSc1nnc(NC(=O)Nc2ccc(C)cc2)s1 | inconclusive: 12.6 µM [cytotoxic, partial curve] | 
COc1ccccc1C(=O)Nc1nc(-c2ccc(Br)cc2)ns1 | inconclusive: 0.0126 µM [cytotoxic, full curve, poor fit] | 
CCOC(=O)c1cccc(NC(=O)c2ccc3snnc3c2)c1 |  | inconclusive: -32.4% [cytotoxic]
CCOc1ccc(-c2cc(C(=O)NCCc3ccccc3)c3c(-c4ccc(C)cc4)[nH]nc3n2)cc1 | active: 15.8 µM | 
CC(=O)N1CCc2c(sc3c2c(=O)n(-c2cccc(Cl)c2)c(=O)n3Cc2ccc(F)cc2Cl)C1 |  | inactive: -16.1%
O=C(CSc1nc2ccccc2o1)Nc1ccc(N2CCOCC2)c(Cl)c1 | inconclusive: 12.6 µM [cytotoxic, single point] | 
COc1ccc(CN(Cc2ccco2)c2cnc(S(C)(=O)=O)nc2C(=O)Nc2ccc(C)c(C)c2)cc1 |  | inactive: -3.18%
O=C(CCS(=O)(=O)c1cccc2nonc12)Nc1cccc(F)c1 |  | inactive: 22%
CC(CNC(=O)c1ccc2c(c1)nc1n2CCOC1)c1ccccc1 (stereo not given) | inconclusive: 3.16 µM [cytotoxic, partial curve] | 
Cc1cccc(OCCSc2nc3ccc(NC(=O)COc4ccccc4F)cc3s2)c1 |  | inactive: -0.657%
CCOc1ccc2nc(NC(=O)CN3CCC(n4nnc5cc(F)ccc54)CC3)sc2c1 | inconclusive: 12.6 µM [cytotoxic, partial curve] | 
O=C(NCCCN1CCCCCC1)[C@@H](c1ccccc1)C1CCCCC1 | inconclusive: 12.6 µM [cytotoxic, partial curve] | 

SMILES | Potency | activity change, negative = cell killing
O=C(NCCc1csc2nc(-c3cccc(F)c3)nn12)c1ccc(Br)o1 | inconclusive: 12.6 µM [cytotoxic, partial curve] | 
CCCCNc1nc2c(c(=O)n(Cc3ccc(Cl)c(Cl)c3)c(=O)n2C)n1C | inconclusive: 25.1 µM [cytotoxic, single point] | 
O=C(Nc1c(Cl)cccc1Cl)c1cc(-c2cccc(O)c2)on1 | inconclusive: 31.6 µM [cytotoxic, single point] | 
COc1ccc(C2c3[nH]c4ccc(OC)cc4c3CCN2C(=O)Nc2ccccc2)cc1 (stereo not given) | inconclusive: 0.0501 µM [cytotoxic, full curve, poor fit] | 
O=C(N/N=C/c1cccs1)c1n[nH]c2c1CCC2 | inconclusive: 14.1 µM [cytotoxic, partial curve] | 
O=C(/C=C/c1cn(CC(O)CN2CCCCCC2)c2ccccc12)c1ccc(Br)cc1 (stereo not given) | inconclusive: 15.8 µM [cytotoxic, single point] | 
C=CCC(CC=C)(CNC(=O)C(=O)Nc1ccc(C(=O)OCC)cc1)c1ccccc1 |  | inactive: -22.3%
Cc1ccc(NC(=O)C(Cc2ccccc2)n2cccc2)cc1C (stereo not given) | inconclusive: 12.6 µM [cytotoxic, single point] | 
COc1cccc(NS(=O)(=O)c2ccc3c(c2)CCCN3C(=O)C2CCC2)c1 | inconclusive: 3.98 µM [cytotoxic, partial curve, poor fit] | 
Cc1cc(C)cc(-n2ccn(CC(=O)Nc3ccccc3F)c(=O)c2=O)c1 |  | inactive: -12.5%
CCOc1ccc(-n2nc(CO)c(C(=O)NCc3cccc(OC)c3)n2)cc1 | inconclusive: 10 µM [cytotoxic, partial curve, poor fit] | 
Cc1ccc(-c2oc3ccccc3c(=O)c2O)cc1 | inconclusive: 15.8 µM [cytotoxic, single point] | 
CCOC(=O)c1ccc(NC(=O)c2ccc(C)c(S(=O)(=O)N3CCOCC3)c2)cc1 | inconclusive: 12.6 µM [cytotoxic, single point] | 
COCCn1c(=O)c(-c2cn(C)c3ccccc23)nc2cnc(Oc3cccc(Cl)c3)nc21 |  | inactive: -4.22%
CCN(CCN(C)C)C(=O)C1CCN(S(=O)(=O)c2c(C)noc2/C=C/c2ccccc2F)CC1 | active: 12.6 µM | 
Cc1cc(C)c(NC(=O)Cn2nnc(-c3nc(-c4ccccc4)no3)c2N)c(C)c1 |  | inactive: 12.6%
O=C(Nc1ccc2c(c1)nc1n2CCSC1)c1ccco1 | active: 3.16 µM | 
O=S(=O)(c1ccccc1)N1CN2CN(C1)CN(S(=O)(=O)c1ccccc1)C2 |  | inactive: 16.1% [at 9.22 µM]
COc1ccc(/C=C/C(=O)Nc2ccc3nc(N4CCCCC4)cc(C)c3c2)cc1OC | inconclusive: 6.31 µM [cytotoxic, single point] | 
CCOC(=O)c1ccc(NC(=O)CSc2nc3c([nH]c4ccccc43)c(=O)n2C)cc1 | inconclusive: 10 µM [cytotoxic, partial curve] | 
Cc1ccccc1-c1noc(-c2cc(-c3ccc(F)cc3)n[nH]2)n1 |  | inactive: 5.37%
CCCCc1nc2ccccc2n1CC(=O)N(COCC)c1c(C)cccc1CC |  | inactive: -3.47%
O=C(Nc1ccc(N2CCOCC2)cc1)c1cc2ccccc2o1 | inconclusive: 15.8 µM [cytotoxic, partial curve] | 
CCCCCn1c(=O)[nH]c2cc(C(=O)Nc3ccc(OC)c(OC)c3)ccc2c1=O |  | inactive: 3.09%

SMILES | Potency | activity change, negative = cell killing
O=C(C1CC1)N1CCN=C1SCc1ccc(F)cc1 | inconclusive: 25.1 µM [cytotoxic, single point] | 
Cn1cc(S(=O)(=O)N2CCCC2)cc1C(=O)Nc1ccc(C(F)(F)F)cc1 |  | inactive: -19.9%
Cc1ccc(SCc2nc(-c3ccc(C(=O)NCc4ccccc4Cl)cc3)oc2C)cc1 | inconclusive: 0.891 µM [cytotoxic, partial curve] | 
COc1ccc(N(C(=O)Cn2nnc3ccccc32)C(C(=O)NCc2ccco2)c2ccc(C)o2)cc1 (stereo not given) |  | inactive: -3.14%
Cc1cc(Nc2ccc(C(C)C)cc2)nc(-n2nc(C)cc2C)n1 | inconclusive: 12.6 µM [cytotoxic, partial curve] | 
COc1ccc(CNc2nc(-c3cccc(C#N)c3)nc3ccccc23)c(OC)c1 |  | inactive: -15.2%
Oc1c(CN2CCN(c3ccccc3)CC2)cc(Br)c2cccnc12 | inconclusive: 2.51 µM [cytotoxic, partial curve] | 
CSc1cccc(N2C(=O)N(CC(=O)NCc3ccccc3Cl)c3ccccc3S2(=O)=O)c1 | inconclusive: 20 µM [cytotoxic, partial curve, poor fit] | 
CCOc1ccccc1N(C)C(=O)Cn1cnc2onc(-c3ccc(F)cc3)c2c1=O |  | inactive: -22.8%
O=C(NCc1ccccc1)c1cc2ccccc2o1 | inconclusive: 12.6 µM [cytotoxic, single point] | 
O=c1c(-c2cccs2)nc2cnc(N3CCNCC3)nc2n1C1CC1 | inconclusive: 12.6 µM [cytotoxic, partial curve] | 
c1cc(CN2CCCCC2)cc(OCCCNc2nc3ccccc3s2)c1 | inconclusive: 7.94 µM [cytotoxic, partial curve] and inconclusive: 25.1 µM [cytotoxic, partial curve, poor fit] | 
CCCn1nc(NC(=O)c2cccs2)c2cc3cc(OC)ccc3nc21 | inconclusive: 12.6 µM [cytotoxic, single point] | 
COc1cccc(CNC(=O)Cn2c(SCC(=O)Nc3ccc(F)cc3)nc3ccccc32)c1 | inconclusive: 12.6 µM [cytotoxic, partial curve] | 
CC(C)Oc1ccc(C(=O)Nc2ccc(N(C)C)cc2)cc1 | inconclusive: 10 µM [cytotoxic, partial curve] | 
COCc1nnc(NC(=O)c2ccc(S(=O)(=O)N(C)c3ccccc3)cc2)o1 | inconclusive: 10 µM [cytotoxic, partial curve] | 
O=C(Nc1ccc(N2CCCC2)cc1)c1cccc(F)c1 | active: 5.01 µM | 
O=c1oc(-c2cc3ccccc3o2)nc2sc3c(c12)CCCC3 |  | inactive: -5.41%
O=C(NC1=NCCS1)C1COc2ccccc2O1 (stereo not given) | active: 12.6 µM | 
COc1cccc(-c2nccc(N(C)Cc3ccco3)n2)c1 | active: 10 µM | 
COc1cc(C2C(=O)N(C3CCC(C)CC3)CC(=O)N2CCc2ccc(Cl)cc2)ccc1OC(C)C (stereo not given) |  | inactive: -11.4%
Cc1cccc(CSCCNC(=O)CN(c2ccccc2)S(=O)(=O)N(C)C)c1 |  | inactive: -12.9%
